Test results as given in PMC12136788.
The list shows a part of the results.

T1: UNK ZnF1-3 (human, UniProt Q9C0B0 31-174)
T1 sequence: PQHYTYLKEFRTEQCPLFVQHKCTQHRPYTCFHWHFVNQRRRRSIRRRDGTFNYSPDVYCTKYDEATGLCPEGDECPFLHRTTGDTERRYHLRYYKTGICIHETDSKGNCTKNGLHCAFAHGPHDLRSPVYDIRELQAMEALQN

B1: chr6:47494509:47494510:-_ENSMUSG00000029687_ENSMUST00000081721|mus_mus|motif|central (ssRNA)
RNA: GGGAGUUCUACAGUCCGACGAUCCCCAAUUAGCCUAGCAAUGGCACAAAAGUUAUCGUAGUAAGUACCAAUGAGGACUCGGAACAUGGAGGCUUCAGCACCACUCCACUCCACAUUCUCAGGAGGUUCAAUAUUUGGCUUCAUCAACAGAGGAUUGAGCAUCA
B2: chr9:113799110:113799111:+_ENSMUSG00000033392_ENSMUST00000111838|mus_mus|motif|central (ssRNA)
RNA: GGGAGUUCUACAGUCCGACGAUCCAGCAGAACAAACAACCAAUCUUGAAGAUCAUCUUUGUGGACUUGUAUGAAAUCGGCGGGAGUCUCCAAGAACAUGCUGAACACCUUGCCAUGAGGAUCUGCAAACAUUCUUGUGAAAAUCAACAGAGGAUUGAGCAUCA
B3: chr1:76259871:76259872:+_ENSG00000137955_ENST00000319942|hu_hu|FALSE|FALSE (ssRNA)
RNA: GGGAGUUCUACAGUCCGACGAUCAUCCACCAUAUCUCCUGGCCUGUCUGCAAAUCCCCCCGUUUCUUCAUCUUGACAUGCUAAAAUGAAAUUACGCAGUUUCUCUCUAUCAAUCCAAUGAAGUCUUCCAAUUAUCUUUAGGGACAACAGAGGAUUGAGCAUCA
B4: 111663246_111667414_605_CDS_ENSG00000156171_ENST00000539140|human|control|control (ssRNA)
RNA: GGGAGUUCUACAGUCCGACGAUCCAUAUAUAAUGAGCCCAUACCAAAGGUAAGCACAGCUCCACUUACAUGUGCAGCAAAAAGGGUUGUUUUCUGGAAGUUUGCCACAAUAGAAAGUCCUAAACAACUCAGUAUUCCAAGUACCAACAGAGGAUUGAGCAUCA
B5: chr5:64942916:64942917:+_ENSG00000113597_ENST00000231526|hu_mus|FALSE|FALSE (ssRNA)
RNA: GGGAGUUCUACAGUCCGACGAUCAGCAUUGGAGGCUGAAAGGUUUAAACGCUGAGAACUCGUCUGCAGAUCCGCCUUCACCAAUAUAUCUUUUACAACUUGAUUGCUGUCAUUGUGAACACUGAUAUAACUGGAAAAGGUCUCCAACAGAGGAUUGAGCAUCA
B6: chr4:174298412:174298413:+_ENSG00000164105_ENST00000296504|hu_hu|FALSE|FALSE (ssRNA)
RNA: GGGAGUUCUACAGUCCGACGAUCAUUCUUCACUGAGUAGAUGAAAUAUGUUAAGGUGUCUUUUUCAUUCACUGGAAUAGACCUAAAGUGGCAACCAACUAUCUCAACAAGUUGUGCUUUAUUAAGUCCUGGUCUGGUUGGUAGCAACAGAGGAUUGAGCAUCA
B7: chr3:150289932:150289933:+_ENSG00000144895_ENST00000460851|hu_hu|hu_hu_hu_mus_False|58_58 (ssRNA)
RNA: GGGAGUUCUACAGUCCGACGAUCCUUGUAGUUUUUAACAUCCCAUACUUCCAUUUGUCCUCGAAGAUUUCCAAAUCCAGCUAAUACUAAUAUAUGUCCAUGAGGGCUAUAGAAGGCUGCGUUGCGAGGACCAGUCCCAAAGUCCAACAGAGGAUUGAGCAUCA
B8: chr1:163112212:163112213:-_ENSG00000143248_ENST00000313961|hu_hu|hu_hu_hu_mus_False|38_88 (ssRNA)
RNA: GGGAGUUCUACAGUCCGACGAUCUUUUAUUAUCAGUAAGAGUGAGUCACAUAGUACGCAAAGUAUUGGAUACAAUAAUCAGGAAACAAACACUAUUUUUCUUGAAUUUAAAACUUUAUGAGCGAAGUGCUGGCACAGGACUUACAACAGAGGAUUGAGCAUCA
B9: 30351319_30351439_1352_3pUTR_ENSMUSG00000022533_ENSMUST00000100013|mouse|control|control (ssRNA)
RNA: GGGAGUUCUACAGUCCGACGAUCCUAACUACUAUGGCUUUCACAAGUUCUCCAGUGUAGAAACGGGUCUGAAUAACAGUCGUCCCACAAAACAAAGUGUGCCGCUUGUGUGUCUCUGGGCUGUACUGCUCCUCCCCCAUUCCUCAACAGAGGAUUGAGCAUCA
B10: chr13:55803104:55803105:+_ENSMUSG00000045767_ENSMUST00000057844|mus_mus|FALSE|FALSE (ssRNA)
RNA: GGGAGUUCUACAGUCCGACGAUCAGCACAGCACCACUGAGUACAUGUGCGGCAAGCGGAGGGAAGGGGAUGCGUGUGGGAAGGGCAAGAAGAAAUGACAAGGUACAAAGCCAGGAAUGAAAUCAAACUCAAAAGGAUGCCGUGCAACAGAGGAUUGAGCAUCA
B11: 144434962_144435082_407_5pUTR_ENSG00000153147_ENST00000283131|human|control|control (ssRNA)
RNA: GGGAGUUCUACAGUCCGACGAUCGACAUGAUGUUCCGUCUGCGUCACCCGCUGCUGCCAGAGGCCCGAGUCCGGCGGGGAUGGACGGGGAGGCCUAGGCCUGGAUGCUACGUCGCAAUAAACUGGUGGAGGAGCGAGACUCCCCAACAGAGGAUUGAGCAUCA
B12: chr19:16212804:16212805:+_ENSG00000167460_ENST00000300933|hu_mus|hu_hu_hu_mus_False|28_68 (ssRNA)
RNA: GGGAGUUCUACAGUCCGACGAUCAACAAUUCUGGAGUGAAGGAAAGAUGUAACAUGGAACAGCAUUCCAUCUAUUACAGAAGGCACAUGGGCAACAAUGAUCACCCCCCAAGCAUUGCUUGGAAUGCUUAAAGACAAUCUGUUCAACAGAGGAUUGAGCAUCA
B13: chr6:117881578:117881579:-_ENSG00000047932_ENST00000052569|hu_hu|FALSE|FALSE (ssRNA)
RNA: GGGAGUUCUACAGUCCGACGAUCUUUAAUGUAGAAGAUGCCAUCUUUAUUUACAGGCUAAUAAAAAAAUAUUAAACUCAACUAGAUAUAAUACAUUAUCAUAAAUGCAAUAGAUUUGAGGCCAACCAUAAGUGUAAGACUGGACAACAGAGGAUUGAGCAUCA
B14: chr14:66974463:66974464:+_ENSMUSG00000022044_ENSMUST00000074523|mus_hu|mus_mus_mus_hu_False|1_48 (ssRNA)
RNA: GGGAGUUCUACAGUCCGACGAUCUUGUAGGACGACUUAUUCAGGGGAUCGGCCAGGAAGCAGGAGCAGAACAAGGACACCAGCGGGAGUUCCUUCAUCUUCUCUUUGUAGGCAGCAAGGGUCAUGUUUCUGGGAUCCUGGUGGCAACAGAGGAUUGAGCAUCA

Biological target: T1, UNK ZnF1-3
Test: nsRBNS (natural sequence RNA bind-n-seq); RBNS binding buffer (assumed for nsRBNS): 25 mM Tris pH 7.5, 150 mM KCl, 3 mM MgCl2, 0.01% Triton X-100, 500 ug/ml BSA, 20 U/ml SUPERase-In, 4 C; UNK is unkempt and MSI1 is Musashi-1; names of the RNAs are library labels; protein concentration not given here; high values mean tight binding

Row | Binder | binding signal
1 | B1 | 1.21 enrichment R
2 | B2 | 1.41 enrichment R
3 | B3 | 0.937 enrichment R
4 | B4 | 0.722 enrichment R
5 | B5 | 1.54 enrichment R
6 | B6 | 0.889 enrichment R
7 | B7 | 1.21 enrichment R
8 | B8 | 1.36 enrichment R
9 | B9 | 0.749 enrichment R
10 | B10 | 2 enrichment R
11 | B11 | 1.12 enrichment R
12 | B12 | 0.962 enrichment R
13 | B13 | 1.72 enrichment R
14 | B14 | 1.72 enrichment R
